Experimental data published in PubChem BioAssay AID1963576 (National Center for Advancing Translational Sciences (NCATS), 2024).
Screen size: about 46,000 compounds; about 60 (0.1%) were called active. Inconclusive results (about 3%) are left out. Calls follow the shape of the dose curve; as a rule, active = well fitted inhibition curve with a large enough effect; inconclusive = small, poorly fitted or top-dose-only effect; inactive = no such curve, though single readings can be large or run the other way. The list shows a part of the results.

Experiment: Primary qHTS assay for Inhibitors of ovarian cancer metastasis using an organotypic tumor microenvironment (TME) model. Also: nearly all actives have a fitted effect of over 65% in size.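 As to activity change, negative = inhibition: plate controls were DMSO wells for no effect and tomatine positive control wells for full effect.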
Settings: SKOV3ip1-GFP adhesion/invasion on 3D omental model, fluorescence; series mostly up to 45.8 µM; activity change, negative = inhibition: at the top concentration
Outline: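 Primary human omental fibroblast/mesothelial 3D culture pre-formed 48 h. SKOV3ip1-GFP cells added with compounds (0.36-46 umol/L), incubated 2 h RT/16 h 37 C, fixed; GFP cells quantified at 488/509 nm.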

outcome, inactive:
Cc1cc(C)c(/C=C/c2onc(C)c2S(=O)(=O)N2CCC(C(=O)NCc3ccco3)CC2)c(C)c1
O=C(CCCCn1c(=O)[nH]c2ccsc2c1=O)N1CCN(c2cccc(Cl)c2)CC1
Cc1nn(CC(=O)N2CCN(c3ccccc3)CC2)c(=O)c2cccn12
Cc1oc(-c2ccc(Cl)cc2)nc1Cn1c(=O)cc(-c2ccccc2)c2c(C)nn(C)c21
COc1ccc(-c2onc(C)c2C)cc1S(=O)(=O)N1CCC(C)CC1
CCOc1ccccc1NC(=O)CSc1cc(=O)n(CC)c2ccccc12
O=C(Cn1cc(S(=O)(=O)Cc2ccc(F)cc2)c2ccccc21)NCc1ccccc1
Cc1cccc(NC(=O)CSc2nc(C)c(Cc3ccccc3)c(=O)[nH]2)c1
COc1ccc(CNC(=O)c2cccc(N3CCCS3(=O)=O)c2)cc1OC
COc1ccc(NC(=O)CN2C(=O)C3(SCC(=O)N3c3ccccc3)c3ccccc32)cc1Cl (centres undefined)
CCOC(=O)c1c(C)c(-c2ccccc2)n(CC(=O)NC2CCCCCC2)c1C
CC(C)c1ccc(NC(=O)c2ccc(Cn3nc(N4CCN(c5ccccc5)CC4)ccc3=O)o2)cc1
Cc1ccc(C)c(N2C(=O)N(C)c3ccccc3S2(=O)=O)c1
CCOc1ccccc1CNC(=O)c1cnc2sc(N3CCOCC3)nn2c1=O
CCc1cccc(NC(=O)C(NS(=O)(=O)c2ccc3nc(C)sc3c2)C(C)C)c1 (centres undefined)
COc1cccc(NC(CNS(=O)(=O)c2ccc(Cl)cc2)c2ccccc2)c1 (centres undefined)
CCC(C)NC(=O)c1ccc2c(c1)N(Cc1ccccc1F)C(=O)c1ccccc1S2=O (centres undefined)
Cc1cc(C)cc(NC(=O)c2cnn(-c3ccc(C)c(C)c3)c2C2CCNCC2)c1
COc1ccc(C(=O)NCCn2cc(SCc3cc(C)ccc3C)c3ccccc32)cc1
COc1ccccc1NC(=O)c1ccc2oc(=O)c(S(=O)(=O)c3ccccc3)cc2c1
COc1ccc(-n2c(-c3ccco3)nc3c(cnn3-c3ccccc3C)c2=O)cc1

Activity change, negative = inhibition, inactive:
CCCCN(CCCC)S(=O)(=O)c1ccc2oc(C(=O)NCc3ccccc3)c(C)c2c1 4.83%
COc1cccc(OC)c1C(=O)Nc1ccc2c(c1)CCCN2S(=O)(=O)c1ccc(C)cc1 3.67%
O=C(COCc1cc(-c2ccco2)on1)Nc1ccc(OC(F)(F)F)cc1 2.86%
Cc1ccc(-c2nc3c(cnn3-c3ccccc3)c(=O)n2-c2ccc(Cl)cc2)cc1 2.95%
CCc1nn(CC(=O)NCc2cccc(OC)c2)c(=O)c2cc3cc(F)ccc3n12 -1.28%
O=C(CNS(=O)(=O)c1ccc(Br)s1)N1CCN(c2ccccc2F)CC1 16.3%
Cc1ccc(-n2ncc3c(NCCC4=CCCCC4)ncnc32)cc1C 34.7%
CSc1nc2c([nH]c3ccccc32)c(=O)n1-c1ccc(F)cc1 1.31%
Cn1c(C(=O)NCc2cccc(F)c2)cc2cc(S(=O)(=O)N3CCCCC3)ccc21 -2.21%
COc1cccc(-c2nc(C(N)=O)c3c(n2)n(-c2ccc4c(c2)OCO4)c(=O)n3C)c1OC -3.93%
CCc1ccc(NC(=O)c2ccc(CN3C(=O)C(C)=C(c4ccc(C)cc4)S3(=O)=O)cc2)cc1 3.58%
CC(=O)c1cc(-c2ccccc2)n(CCC(=O)Nc2cc(C)cc(C)c2)c1C 2.16%
CCOc1ccc(-c2cc(C(F)(F)F)c(C#N)c(SCC(=O)Nc3ccccc3)n2)cc1 0.381%
COc1ccccc1CCNC(=O)c1cccn1-c1nnc(N2CCCCC2)s1 -1.64%
COc1ccc2c(c1)CC[C@H]1[C@@H]2CC[C@]2(C)[C@@H](NCCCCCCN3C(=O)C=CC3=O)CC[C@H]12 0.496%
Nc1nc(-c2nn(Cc3ccccc3F)c3ncccc23)nc(N)c1N1CCOCC1 -7.94%
COc1ccc(-c2nc(CNS(=O)(=O)c3ccc(F)cc3)cs2)cc1 8.74%
Cc1ccc(C)c(N2CCN(C(=O)c3c4c(nc5ccccc35)C(=O)N(C3CCCCC3)C4)CC2)c1 -5.96%
COc1ccccc1N1CCN(C(=O)c2c3c(nc4ccccc24)C(=O)N(C2CCCCC2)C3)CC1 -10.2%
CCCNC(=O)CN1C(=O)c2cccnc2Sc2ccccc21 3.85%
C[C@@H]1CN(c2c(F)c(N)c3c(=O)c(C(=O)O)cn(C4CC4)c3c2F)C[C@H](C)N1 3.73% [at 23.2 µM]
COc1ccc2cc(CNc3ccc(OC)c(OC)c3)c(=O)n(CC(=O)Nc3ccc(C)cc3)c2c1 36.8%
COc1cc(OC)cc(-n2c(=O)c3ccccc3n(CC(=O)NCCc3ccc(OC)c(OC)c3)c2=O)c1 -6.64%
CCCOc1cccc(C(=O)Nc2ccc(-c3nc4ccccc4o3)cc2)c1 -0.447%
CCC(C)NC(=O)c1sc2nc(C)c(C(=O)Nc3ccc(Cl)cc3)c(-c3ccc(Br)cc3)c2c1N (centres undefined) -2.02%
O=C(CSc1nc2c(c(=O)[nH]1)CN(Cc1ccc3c(c1)OCO3)CC2)Nc1ccc(F)cc1 -2.44%
O=c1cc(-c2ccc(F)cc2)nc(SCc2nc(-c3cccc(C(F)(F)F)c3)no2)[nH]1 0.614%
Cc1c(C(=O)N(Cc2cccc(F)c2)C2CCS(=O)(=O)C2)oc2cc(Br)ccc12 (centres undefined) 7.69%
CCn1c(=NC(=O)c2ccc(S(=O)(=O)N3CCCC3)cc2)sc2cc(Br)ccc21 52.5%
CCc1ccc(N2C(=O)CSC23C(=O)N(Cc2cccc(OC)c2)c2ccccc23)cc1 (centres undefined) -23.1%
O=C(Cn1ncn2nc(-c3cccs3)cc2c1=O)NCc1ccccc1Cl -0.812%
Cc1cccc(Cn2cnc3c(oc4ccccc43)c2=O)c1 13.5%
COc1cccc(NC(=O)Cn2cc(C(=O)c3ccc(F)cc3)c(=O)c3cc(OC)ccc32)c1 4.62%
C=CCc1ccc(OCc2ccc(C(=O)Nc3ccc(NC(C)=O)cc3)o2)c(OC)c1 -10.7%
CC1CCCN(S(=O)(=O)c2ccc(N3CCCCS3(=O)=O)cc2)C1 (centres undefined) 8.24%
CCCN(CCC)CCNC(=O)c1sc2nc3n(c(=O)c2c1C)CCCCC3 6.04%
COc1ccc(-n2c(C)nc3cc(C(=O)NC4CCCCCC4)ccc32)cc1 2.59%
COC(=O)c1c(NC(=O)c2nc(SCc3ccccc3C)ncc2Cl)sc2c1CCCC2 -6.41%
CCC(=O)N1CCc2cc(CNS(=O)(=O)c3ccc(Br)s3)ccc21 3.72%
Cc1cc(C)cc(NC(=O)N2CCC(CN3CCc4ccccc4C3)CC2)c1 -8.03%
N#Cc1ccc(NC2=NS(=O)(=O)c3ccccc32)cc1 6.79%
Cc1ccc(NS(=O)(=O)c2ccc3[nH]c4c(c3c2)CCCCCC4)cc1 -14.6%
COc1ccc(-c2c(C)nn3c(N4CCN(c5ccccc5F)CC4)cc(C)nc23)cc1OC 8.01%
CCc1c(C)sc2c1CCN(C(=O)Nc1cc(C)ccc1OC)C2c1ccc(F)cc1 (centres undefined) -13.6%
CCOc1ccc(-n2c(SCC(=O)Nc3ccc4c(c3)OCCO4)nc3c([nH]c4ccccc43)c2=O)cc1 11.6%
Clc1ccccc1-c1nnc(-c2ccccc2CNc2ccc(Br)cc2)o1 -11.4%
OCCN1CCN(C(c2ccc(Cl)cc2Cl)c2sc3nc(-c4ccco4)nn3c2O)CC1 (centres undefined) -5.64%
CCc1nc2ccc(C(=O)NCc3ccc(SC)cc3)cc2nc1CC 31.2%
CCc1cccc(NC(=O)C2CCC(CNS(=O)(=O)c3ccc4c(c3)CCCC(=O)N4)CC2)c1 (centres undefined) 70.5%
Cc1cncn1CCc1nc2c3ccccc3nc(SCC(=O)Nc3ccc(F)cc3)n2n1 0.639%
CCOc1ccc(CCNC(=O)Cn2ncc3c([nH]c4ccccc43)c2=O)cc1OCC 1.79%
CCN(C(=O)Cn1c(=O)nc(-c2ccccc2)c2cc(Cl)ccc21)c1cccc(C)c1 2.23%
Cc1ccc(CNC(=O)c2sc3nc(-c4ccccc4)cn3c2C)cc1 -8.03%
O=C(CCS(=O)(=O)c1cc(Br)cc2c1N(C(=O)C1CC1)CC2)Nc1ccc(F)cc1 -2.78%
Cc1ccc(Cl)cc1N1CCN(C(=O)c2ccc3c(c2)N(Cc2ccccc2F)C(=O)c2ccccc2S3=O)CC1 (centres undefined) 12%
CCOc1ccccc1NC(=O)CCc1c(C)nc2c(c(C)nn2-c2ccccc2)c1C -4.11%
C#CCSc1nc(-c2ccccc2)c2cc(Cl)ccc2n1 4.29%
CC(C)c1ccc2c(c1)NC(c1ccncc1)=NC(c1cccs1)=N2 -8.28%
COc1ccc(-c2cc(OC(=O)c3ccccc3)c3c(C)oc(C)c3c(=O)c2)cc1OC 1.76%
Cc1cc(C)cc(-n2c(C)nc3cc(C(=O)NCc4ccc(F)cc4)ccc32)c1 -0.637%
Cn1nnc2c(NCc3ccccc3)ncnc21 -11.8%
CC(C)Cn1c(=O)c2ccccc2n2c(CCC(=O)NCc3ccc(Cl)cc3)nnc12 -1.7%
CC(C)(C)NC(=O)[C@H]1CN(Cc2cccnc2)CCN1C[C@@H](O)C[C@@H](Cc1ccccc1)C(=O)N[C@H]1c2ccccc2C[C@H]1O 17.7%
O=C(NCc1ccc(F)cc1)c1ccc(Cn2c(SCc3ccc(F)cc3)nc3cccnc32)cc1 -8.51%
Cn1c(=O)oc2cc(S(=O)(=O)NCCC(=O)NCc3ccc(F)cc3)ccc21 4.37%
CCCCn1c(=N)c(C(=O)NC2CCCCC2)cc2c(=O)n3cccc(C)c3nc21 23.7%
O=C(CCC(=O)N1CCSc2ccccc21)NCc1ccccc1Cl -0.83%
CCOC(=O)c1c(C)oc2nc(C)nc(NCCCN3CCN(c4ccc(F)cc4)CC3)c12 14.6%
CC(CNS(=O)(=O)c1ccc2c(c1)CC(=O)N2C)c1ccccc1 (centres undefined) -1.75%
Cc1ccc(C(C)C)c(OCCCn2c(=O)oc3ccccc32)c1 2.36%
Cc1ccccc1CNC(=O)c1cc2cc(S(=O)(=O)N3CCCCC3)ccc2n1C 4.47%
CCOc1ccc(C2c3c(oc4ccccc4c3=O)C(=O)N2c2nnc(C)s2)cc1OC (centres undefined) 16.3%
Cc1cc(N2CCN(c3cccc(C)c3C)CC2)n2nc(C)c(-c3ccc(Cl)cc3)c2n1 -1.85%
